In PubChem BioAssay (NCI):
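Where inhibition never reached the appropriate level, the endpoint shown equals the highest concentration tested. Otherwise, values were interpolated linearly from a five-concentration, 48-hour dose response in 96-well plates. The concentration for 50% growth inhibition is given as GI50. Definition used: TGI = concentration required for complete inhibition of growth.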

System: NCI-H322M lung
Test: NCI anticancer screen, dose series, 48 h

Row | Compound | TGI [µM] | GI50 [µM]
1 | COC(=O)/C(=N\N)C(C(=O)C(=O)Nc1nc(=S)[nH][nH]1)c1nc2ccc([N+](=O)[O-])cc2[nH]c1=O (stereo unspecified) | > 100 | –
2 | Cc1ccc2c(c1)C(O)(c1ccccc1)CCS2 (stereo unspecified) | 95.5 | –
3 | c1ccc(/C(=N\Nc2nc3ccccc3s2)c2ccccn2)cc1 | 27.8 | –
4 | FC(F)(F)c1nc(Br)[nH]c1C(F)(F)F | > 100 | –
5 | CC(C)(C)OC(=O)N1Cc2cc3ccccc3nc2C1CO (stereo unspecified) | > 100 | > 100
6 | CCOC(=O)c1cc2c(n1Cc1ccccc1OC)-c1oncc1CCC2 | > 100 | 5.23
7 | CCCCNCCCCCNc1cc(OC)cc2cccnc12 | 78.2 | 26.9
8 | COC(=O)[C@H](CCCCNC(=O)OCc1ccccc1)NC(=O)[C@@H](NC(=O)Nc1cc(C(F)(F)F)cc(C(F)(F)F)c1)C(C)C | > 10 | > 10
9 | CC12CCC(=O)[C@@]1(C)CCCC2O (stereo partly specified) | > 100 | –
10 | NC(=O)NC(=O)c1cccc(NC(=O)CCl)c1 | 22.6 | –
11 | Cc1ccc(CN2CCN(Cc3ccc(C)o3)C(C)C2)o1 (stereo unspecified) | > 100 | –
12 | COc1cc(/C=N/n2c(C)n[nH]c2=O)cc(OC)c1OC | > 100 | –
13 | COC(=O)c1cc2c(cc1C(=O)OC)[C@@]1(C)CCCC(C)(C)C1CC2 (stereo partly specified) | 38.6 | –
14 | COc1cc(C(=O)OC2CC34CCNC35CC(OC5(OC)C2O)c2cc3c(cc24)OCO3)ccc1O (stereo unspecified) | > 100 | –
15 | CC1(C)CC[C@]2(CO)CC[C@]3(C)C(=CC[C@@H]4[C@@]5(C)CCNCC(C)(C)[C@@H]5CC[C@]43C)[C@@H]2C1 | 14.7 | 3.98
16 | COC1C(=O)N(SC)C1c1ccccc1Cl (stereo unspecified) | > 100 | –
17 | CCOC(OC1=C(C#N)CCCC1)C(CC)[Se]c1ccccc1[N+](=O)[O-] (stereo unspecified) | > 100 | –
18 | O=C(OCc1ccccc1)n1cccc1 | > 100 | –
19 | CCCCC[C@H]1C/C=C2/C(=O)C(Cl)=C[C@@H]2C/C=C\CCCC(=O)O1 | 2.72 | 0.768
20 | CCCCCCCCCCCCCCCCCCOCC(O)CO (stereo unspecified) | > 25 | –
21 | C/C(=N\NC(=S)N1CCN(c2ccccn2)CC1)c1cccc2cccnc12 | > 56.2 | –
22 | Cc1ccc(C2C3Cc4ccccc4C3=NN2c2ccc(S(=O)(=O)NC(=O)Nc3ccccc3)cc2)cc1 (stereo unspecified) | 35.8 | 17.6
23 | c1cc2c3ccsc3c3sccc3c2s1 | > 100 | –
24 | O=C(O)c1[nH]c2c([N+](=O)[O-])cc([N+](=O)[O-])cc2c1C(=O)O | > 100 | –

Row | Compound | TGI [µM] | GI50 [µM]
25 | CCOC(=O)CCSC1=CC(=O)c2nc3ccccc3c3ccnc1c23 | > 100 | 64.2
26 | CN(C)C/C=C/C(=O)Nc1cc2c(Nc3cccc(Cl)c3F)ncnc2cc1OCCOC(F)F | 4.75 | < 0.01
27 | CC[Si](CC)(CC)OC1[C@@H](O[Si](CC)(CC)CC)[C@@H](CNC(=O)NC)O[C@H]1n1cnc2c(NC(=O)Nc3ccccc3)ncnc21 (stereo partly specified) | > 100 | 6.31
28 | CC(=O)[CH-]C(=O)c1ccccc1.CC(=O)[CH-]C(=O)c1ccccc1.CC(=O)[CH-]C(=O)c1ccccc1.[Br-].[Zr+4] | > 100 | > 100
29 | CC(C)(C)OC(=O)C1/C(=C/CBr)CN1C(=O)OC(C)(C)C (stereo unspecified) | 30.9 | –
30 | COc1cc(OC)nc(-n2c(N)c(C(=O)O)c3ccc([N+](=O)[O-])cc3c2=O)n1 | > 100 | –
31 | N#CC(C#N)=C1CCC2C(=C(C#N)C#N)CCC12 (stereo unspecified) | > 100 | –
32 | CC1(C)CN(CCNc2nccc(-c3c(-c4cccc(O)c4)nc4sccn34)n2)S(=O)(=O)N1 | > 33.2 | 13.8
33 | C1=C\CCCCN2CC[C@H]3[C@H](CCCC/C=C\CCCN4C[C@@H](CCCCC/1)C[C@@H]3C4)C2 | 26.7 | 13.5
34 | CCC(=O)CCC1=Nc2nnc(CCCCc3nnc4n3C(=O)C(CCC(=O)CC)=N4)n2C1=O | > 100 | –
35 | O=C1c2ccccc2C(=O)c2sc(Nc3ccc([N+](=O)[O-])cc3)nc21 | 26.7 | –
36 | Cc1ccc(NC(=O)CCC(=O)C2Cc3ccccc3C2=O)cc1C (stereo unspecified) | > 100 | –
37 | Cc1cc(S(=O)(=O)NC2=NCC(C)(C)CN2)c(S)cc1Cl | > 100 | –
38 | NCCCNc1nc2ccccc2c2c(=O)c3cc(F)cc(Cl)c3sc12 | 3.21 | 1.69
39 | Nn1c(CCCCCCCCc2n[nH]c(=S)n2N)n[nH]c1=S | > 100 | –
40 | CC(C)=CCOc1ccc(-c2coc3cc4c(c(O)c3c2=O)C=CC(C)(C)O4)cc1 | > 100 | –
41 | O=C1CCc2ccc(O)c(c2)Oc2ccc(cc2)[C@@H]2O[C@@H]2CO1 | > 100 | –
42 | CC(=O)/C=C/c1ccc(N(CCO)Cc2ccc(C(C)(C)C)cc2)cc1 | 221 | 103
43 | O=c1[nH]c(=O)n(C2OC(CO)C(O)C2O)cc1F (stereo unspecified) | > 100 | –
44 | COC(=O)[C@H](C)N(C)C(=O)[C@H](C)N1[C@@H](c2ccccc2)COC1(C)C | > 100 | –
45 | COc1ccc(C2=NN(C(=O)c3ccc(Cl)cc3)C(O)(c3cc(F)c(Cl)cc3Cl)C2)cc1 (stereo unspecified) | > 100 | –
46 | COc1ccc(-c2nnc(Nc3nc(O)c(C4=c5cc(Br)ccc5=NC4=O)s3)o2)cc1 | 38.6 | 7.06
47 | Cc1ccc(O)c(C(c2cc(C)ccc2O)c2cc([N+](=O)[O-])ccc2O)c1 | 36.4 | –
48 | O=C1NC(N2CCCCC2)=N/C1=C\c1ccco1 | > 100 | –

Row | Compound | TGI [µM] | GI50 [µM]
49 | C=CCN1C(=O)[C@]2(SC1=S)[C@H](c1cccc(Cl)c1)CN(C)[C@]21C(=O)NC2C=CC(Cl)=C[C@H]21 (stereo partly specified) | 27 | 10.4
50 | O=C(CCN1CCCC1)c1ccc(Oc2ccc(F)cc2)cc1 | > 100 | –
51 | COc1cc(NCCC2CCCCN2)c2ncccc2c1OC (stereo unspecified) | 33.7 | 15.9
52 | C=C1C(C(=O)O)C1C(=O)O (stereo unspecified) | > 100 | –
53 | COc1ccc2[nH]c3c(O)c(-c4c(C)cc5c([nH]c6ccc(OC)cc65)c4O)c(C)cc3c2c1 | 8.54 | –
54 | COC(=O)/C(C#N)=C/c1cc(C(C)(C)C)c(O)c(C(C)(C)C)c1 | > 30 | –
55 | Nc1ncc2c(n1)-c1ccccc1OC2N1CCOCC1 (stereo unspecified) | > 100 | –
56 | CN1/C(=C/C=C/c2n(Cc3ccc4ccccc4c3)c(Cl)c(Cl)[n+]2Cc2ccc3ccccc3c2)Oc2ccccc21 | 1.87 | 0.617
57 | O=C(O)c1cc(Cl)cc(Cc2cc(Cl)cc(C(=O)O)c2O)c1O | > 100 | –
58 | Clc1ccc(N2N=C(c3cccc(Nc4ccncc4)c3)CC2c2ccc(Br)cc2)cc1 (stereo unspecified) | 2.97 | 1.58
59 | OCC1OC(n2cnc3c(NCc4ccco4)ncnc32)C(O)C1O (stereo unspecified) | 64 | 0.441
60 | N#Cc1c(N)c2c(c(-c3ccccc3)c1-c1ccccc1)C(=O)N(O)C2=O | > 100 | –
61 | Cc1ccc(NC2=CC(=O)C(=O)c3ccccc32)cc1 | 5.31 | 1.83
62 | CCOC(=O)c1cc2c(n1Cc1cc(OC)cc(OC)c1)-c1oncc1CC2 | > 100 | 0.505
63 | CC(=O)OC(C)c1cc2c(s1)C(=O)c1ccsc1C2=O (stereo unspecified) | 2.83 | –
64 | CCSCCCC(=O)O | > 100 | –
65 | CC[P+]1(c2ccccc2)CCCCC1 | > 100 | –
66 | CCc1cccc(NC(=O)c2cc(/C=C/c3ccccc3)[nH]c(=S)n2)c1 | > 100 | –
67 | C=C1C(O)C2CC(C)(C)C(=O)C2=C(CC(C)C)C12CC2 (stereo unspecified) | > 100 | > 100
68 | Cc1ccc(S(=O)(=O)NNC(=O)Nc2ccc([N+](=O)[O-])cc2)cc1 | > 100 | –
69 | COc1cc2cnc3c4cc(OC)c(OC(C)C)cc4ccc3c2cc1OC | > 100 | –
70 | COc1ccc(C(Nc2ccccn2)c2cc(C(C)(C)C)cc(C(C)(C)C)c2O)cc1 (stereo unspecified) | > 100 | –
71 | CCOC(=O)/C(=C\c1c(C)[nH]c2ccccc12)P(=O)(OCC)OCC | > 100 | –
72 | CCOC(=O)CCc1ccc(NC(=O)/C=C/c2ccc([N+](=O)[O-])o2)cc1 | 5.05 | –
